Assay results from PubChem BioAssay AID1347165 (National Center for Advancing Translational Sciences (NCATS), 2019).
About 5,700 (2.6%) of roughly 220,000 compounds were called active. The shares of active, inactive and inconclusive entries below differ from those in the screen. Calls come from the whole dose curve; as a rule, active = well fitted inhibition curve with a large enough effect; inconclusive = small, poorly fitted or top-dose-only effect; inactive = no such curve, though single readings can be large or run the other way. Potencies beside an inconclusive call are fits to weak or partial responses and may not hold up.

What follows are molecules tested against Lysine-specific demethylase 5B (Homo sapiens) (UniProt Q9UGL1) (assay: Primary screen for KDM5B Histone Demethylases FDH-coupled qHTS). Settings: FDH-coupled NADH fluorescence (FDH is formaldehyde dehydrogenase); activity change, negative = inhibition: at 57.7 µM (top of the series) unless noted.
Chain of UniProt Q9UGL1 (Q9UGL1 whole entry, looked up): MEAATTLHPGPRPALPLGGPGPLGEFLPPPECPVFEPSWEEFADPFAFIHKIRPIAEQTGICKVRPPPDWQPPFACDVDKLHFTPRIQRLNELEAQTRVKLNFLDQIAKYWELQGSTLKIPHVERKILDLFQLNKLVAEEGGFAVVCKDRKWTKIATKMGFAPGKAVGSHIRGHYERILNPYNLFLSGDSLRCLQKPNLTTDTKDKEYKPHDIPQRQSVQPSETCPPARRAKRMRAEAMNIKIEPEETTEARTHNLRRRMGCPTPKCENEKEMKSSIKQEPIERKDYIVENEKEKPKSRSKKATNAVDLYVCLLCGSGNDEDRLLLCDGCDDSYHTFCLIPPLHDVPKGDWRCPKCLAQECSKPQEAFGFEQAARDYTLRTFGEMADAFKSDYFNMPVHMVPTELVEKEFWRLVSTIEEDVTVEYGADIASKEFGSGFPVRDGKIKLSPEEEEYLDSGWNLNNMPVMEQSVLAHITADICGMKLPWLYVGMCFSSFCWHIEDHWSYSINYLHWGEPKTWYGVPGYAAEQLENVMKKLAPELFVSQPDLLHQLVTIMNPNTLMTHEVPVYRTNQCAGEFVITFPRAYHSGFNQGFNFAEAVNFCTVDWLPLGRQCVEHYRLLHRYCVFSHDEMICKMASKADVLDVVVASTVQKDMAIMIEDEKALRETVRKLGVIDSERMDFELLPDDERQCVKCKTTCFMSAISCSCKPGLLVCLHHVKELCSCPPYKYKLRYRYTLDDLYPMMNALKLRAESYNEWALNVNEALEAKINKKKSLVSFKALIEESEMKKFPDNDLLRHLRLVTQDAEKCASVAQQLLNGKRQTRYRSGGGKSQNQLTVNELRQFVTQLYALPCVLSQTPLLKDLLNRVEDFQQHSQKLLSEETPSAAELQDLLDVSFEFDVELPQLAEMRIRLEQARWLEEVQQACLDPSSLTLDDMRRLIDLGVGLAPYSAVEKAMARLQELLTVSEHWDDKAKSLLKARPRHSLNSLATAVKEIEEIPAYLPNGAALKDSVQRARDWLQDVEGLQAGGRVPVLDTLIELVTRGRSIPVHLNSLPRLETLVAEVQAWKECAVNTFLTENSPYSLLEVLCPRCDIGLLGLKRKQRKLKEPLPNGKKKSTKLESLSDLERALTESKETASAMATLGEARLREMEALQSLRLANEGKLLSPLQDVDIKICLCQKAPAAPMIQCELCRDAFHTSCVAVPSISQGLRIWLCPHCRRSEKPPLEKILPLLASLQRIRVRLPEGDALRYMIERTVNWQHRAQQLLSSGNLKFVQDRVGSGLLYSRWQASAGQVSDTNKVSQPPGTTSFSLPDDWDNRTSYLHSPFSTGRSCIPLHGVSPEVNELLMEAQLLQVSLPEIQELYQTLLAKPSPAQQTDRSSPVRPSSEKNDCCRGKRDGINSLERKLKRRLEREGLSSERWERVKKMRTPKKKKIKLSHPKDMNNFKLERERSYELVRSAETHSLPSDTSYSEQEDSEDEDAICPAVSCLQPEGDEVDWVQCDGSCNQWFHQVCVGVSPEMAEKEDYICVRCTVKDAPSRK
How it was run: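 Here, H3K4me3 peptide (12.5 µM in substrate mix) is demethylated by KDM5BΔAP, 200 nM final, after 10 min compound exposure. Formaldehyde product is coupled through FDH (0.25 U/mL in mix) to NADH fluorescence; 30-min ΔRFU feeds dose-response curves.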
Note: nearly all actives have a fitted effect of over 70% in size.
Potency is the fitted concentration of half-maximal effect; tags give direction and shape of the fitted curve.
Throughout, for activity change, negative = inhibition: 0% is about no effect.

Question: With `CC1=C(C(N)=O)C(c2ccc(C)cc2)n2nc(SCc3ccccc3F)nc2N1` (configuration not stated) as the molecule, how does the Potency read?
Answer: Its Potency is inconclusive: 39.8 µM [inhibitor, single point].

Question: For `O=C(Nc1cccc(C(F)(F)F)c1)c1nc2c(o1)CCN(Cc1ccc(F)cc1)CC2`, which Potency is on record?
Answer: The Potency was active: 39.8 µM.

Question: With `O=C(Cc1c[nH]c2ccccc12)Nc1ccc2ccccc2c1` as the molecule, how does the Potency read?
Answer: The Potency was “inactive”.

Question: Which Potency does the source give for `O=C(c1ccncc1)N1CC[C@H](c2nnc(-c3ccncc3)o2)C1` here?
Answer: The Potency was “inactive”.

Question: How did the Potency turn out when `CCCCOc1ccc(CNC(=O)c2ccc(-c3nc(CN4CCc5ccccc54)c(C)o3)cc2)cc1` was run?
Answer: Its Potency is inconclusive: 28.2 µM [inhibitor, partial curve, poor fit].

Question: How did the Potency turn out when `O=C(N[C@@H]1CCOC[C@H]1OCCO)c1cccc(-c2ccco2)c1` was run?
Answer: Its Potency is active: 28.2 µM.

Question: Which Potency does the source give for `O=C(COCC(=O)N(c1ccccc1)c1ccccc1)Nc1ccccc1` here?
Answer: Its Potency is “inactive”.

Question: With `Cc1cc2oc(=O)cc(CN3CCCCCC3)c2cc1C(C)C` as the molecule, how does the Potency read?
Answer: The Potency was inconclusive: 10 µM [inhibitor, partial curve, poor fit].

Question: `CC(NC(=O)c1ccc2cc[nH]c2c1)c1ccccc1Br` (configuration not stated) was tested. Which Potency did it give?
Answer: Its Potency is inconclusive: 25.1 µM [inhibitor, partial curve, poor fit].

Question: How did the Potency turn out when `Cc1cccn2c(=O)c(/C=C(\C#N)C(=O)NC3CCS(=O)(=O)C3)c(Oc3ccccc3Cl)nc12` (configuration not stated) was run?
Answer: The Potency was inconclusive: 25.1 µM [inhibitor, partial curve, poor fit].

Question: With `Cc1nc2c(C(=O)O)cnn2c(C)c1Cc1ccccc1` as the molecule, how does the Potency read?
Answer: The Potency was inconclusive: 35.5 µM [inhibitor, partial curve, poor fit].

Question: For `Cc1ccccc1C(=O)Nc1nc2nc(C)c(C)c(=O)n2[nH]1`, which Potency is on record?
Answer: Its Potency is inconclusive: 2 µM [inhibitor, partial curve, poor fit].

Question: For `CC(C)C(=O)N1CCC(N2C(=O)C3(CCCCC3)C2c2ccncc2)CC1` (configuration not stated), which Potency is on record?
Answer: Its Potency is inconclusive: 28.2 µM [inhibitor, partial curve, poor fit].

Question: For `COCCn1cnc2ccc(Nc3ccc(C(F)(F)F)cc3)nc2c1=O`, which Potency is on record?
Answer: The Potency was inconclusive: 25.1 µM [inhibitor, partial curve].

Question: How did the Potency turn out when `Cc1ccc2c(n1)N(C)[C@H](CO)CCN(C1Cc3ccccc3C1)C2` was run?
Answer: The Potency was inconclusive: 31.6 µM [inhibitor, single point].

Question: For `Cc1ccc(-c2cnc(CCC(=O)Nc3ccc(Cl)cc3F)o2)cc1`, which Potency is on record?
Answer: The Potency was “inactive”.

Question: How did the Potency turn out when `COc1cccc(NC(=O)CSc2ccc(-c3ccco3)nn2)c1` was run?
Answer: Its Potency is inconclusive: 14.1 µM [inhibitor, partial curve, poor fit].

Question: How did the Potency turn out when `CNc1nc2c(c(C(=O)N3CCCC3)n1)CN(C(=O)c1cc(C(C)C)on1)CC2` was run?
Answer: The Potency was inconclusive: 28.2 µM [inhibitor, single point].

Question: How did the Potency turn out when `O=C(c1cccc(N2CCCC2=O)c1)N1CCCC(O)(CN2CCCC2)C1` (configuration not stated) was run?
Answer: Its Potency is inconclusive: 15.8 µM [inhibitor, partial curve].

Question: With `CC(Sc1ccc(Br)cn1)C(=O)Nc1cccc(Br)c1` (configuration not stated) as the molecule, how does the Potency read?
Answer: Its Potency is “inactive”.

Question: With `O=C(NCCc1csc(-c2ccc(F)cc2)n1)c1cccs1` as the molecule, how does the Potency read?
Answer: The Potency was inconclusive: 14.1 µM [inhibitor, partial curve, poor fit].

Question: How did the Potency turn out when `CCOCCn1c(=O)[nH]c2cc(C(=O)NCc3n[nH]c(C)n3)ccc21` was run?
Answer: The Potency was inconclusive: 28.2 µM [inhibitor, partial curve, poor fit].

Question: For `COc1cc(/C=C/C(=O)c2ccc(O)cc2)cc(Br)c1O`, which Potency is on record?
Answer: Its Potency is inconclusive: 25.1 µM [inhibitor, single point].

Question: Which Potency does the source give for `COc1cccc(CNC(=O)N[C@@H]2CN(c3ncccn3)C[C@H]2CN(C)C)c1` here?
Answer: Its Potency is active: 28.2 µM.

Question: `CCN1CCN(c2ccc(-c3cccc(N)c3)nn2)CC1` was tested. Which Potency did it give?
Answer: The Potency was “inactive”.

Question: How did the Potency turn out when `O=C(NCCc1ccccn1)c1ccc(-c2nnc3ccc(NC(=O)C4CCC4)cn23)cc1` was run?
Answer: Its Potency is inconclusive: 3.16 µM [inhibitor, full curve, poor fit].

Question: With `CCOc1cc(C2NC(=O)c3c(sc4c3CCN(C)C4)N2)ccc1OC(=O)c1ccccc1Cl` (configuration not stated) as the molecule, how does the activity change, negative = inhibition read?
Answer: Its activity change, negative = inhibition is inconclusive: -37.4% [inhibitor].

Question: For `O=C(Cn1nc(C(=O)O)c2ccccc2c1=O)c1ccc(F)cc1`, which Potency is on record?
Answer: Its Potency is “inactive”.

Question: `Cc1ccc2[nH]c(C(=O)Nc3ccccc3)cc2c1` was tested. Which Potency did it give?
Answer: Its Potency is inconclusive: 22.4 µM [inhibitor, single point].

Question: For `CN(CCOc1ccc(Cl)cc1)Cc1nc(N)nc(N)n1`, which Potency is on record?
Answer: The Potency was “inactive”.

Question: With `N#Cc1cc2c(nc1N1CCN(C(C(=O)O)c3c[nH]c4ccc(Cl)cc34)CC1)CCCC2` (configuration not stated) as the molecule, how does the Potency read?
Answer: Its Potency is inconclusive: 28.2 µM [inhibitor, partial curve, poor fit].

Question: Which Potency does the source give for `COc1cccc(C(=O)NC2CCN(c3cc(-c4ccccc4)[nH]n3)CC2)c1OC` here?
Answer: Its Potency is inconclusive: 25.1 µM [inhibitor, single point].

Question: With `Cc1cnc(NC(=O)Cn2ccc3ccc(Br)cc32)s1` as the molecule, how does the Potency read?
Answer: The Potency was “inactive”.

Question: Which Potency does the source give for `O=C(Nc1ccccc1)N1CCCN(c2nc3ncccc3o2)CC1` here?
Answer: Its Potency is inconclusive: 44.7 µM [inhibitor, partial curve, poor fit].

Question: How did the Potency turn out when `CN1CCN(CCCNC(=O)Cn2c(-c3cccs3)cc3cc(Cl)ccc32)CC1` was run?
Answer: Its Potency is inconclusive: 31.6 µM [inhibitor, partial curve, poor fit].

Question: `COc1ccccc1CN1CC(c2noc(-c3cc(C)cc(C)c3)n2)CC1=O` (configuration not stated) was tested. Which Potency did it give?
Answer: The Potency was inconclusive: 17.8 µM [inhibitor, single point].

Question: How did the Potency turn out when `COc1ccc(CN2CC3(CCN(C(=O)c4cccc(C)c4)CC3)C2=O)cc1` was run?
Answer: The Potency was “inactive”.

Question: With `COC1CN(c2cccc(F)c2)C12CCN(C(=O)NCCc1ccccc1)CC2` (configuration not stated) as the molecule, how does the Potency read?
Answer: The Potency was “inactive”.

Question: How did the Potency turn out when `CCOc1ccc(OCCn2c(CN3CCOCC3)nc3scc(-c4cccs4)c3c2=O)cc1` was run?
Answer: The Potency was inconclusive: 39.8 µM [inhibitor, single point].

Question: How did the Potency turn out when `CC(C)NC(=O)Nc1c(NC2CCCC2)c2ccccc2oc1=O` was run?
Answer: Its Potency is “inactive”.

Question: How did the Potency turn out when `N#Cc1ccc(NCCNC(=O)c2nccnc2N)nc1` was run?
Answer: Its Potency is inconclusive: 25.1 µM [inhibitor, partial curve, poor fit].

Question: With `Cn1nc(C(C)(C)C)cc1NC(=O)c1ccc(Cl)c(Cl)c1` as the molecule, how does the Potency read?
Answer: Its Potency is “inactive”.

Question: How did the Potency turn out when `CN(C(=O)Cn1cc(S(=O)(=O)N2CCN(c3ccccc3F)CC2)c2ccccc2c1=O)c1ccc(Cl)cc1` was run?
Answer: The Potency was inconclusive: 17.8 µM [inhibitor, partial curve, poor fit].

Question: `COc1ccc(-c2nc(C)c(-c3ccccc3)s2)cc1` was tested. Which Potency did it give?
Answer: Its Potency is inconclusive: 22.4 µM [inhibitor, partial curve, poor fit].

Question: With `Cc1ccc(S(=O)(=O)N[C@H]2C[C@@H](c3nc(-c4ccc5c(c4)OCO5)no3)N(C)C2)cc1` as the molecule, how does the Potency read?
Answer: Its Potency is inconclusive: 20 µM [inhibitor, single point].

Question: `O=C1CCN(C(=O)CN2CCCCCC2)CCCC(c2nc(-c3ccccc3)no2)CCN1` (configuration not stated) was tested. Which Potency did it give?
Answer: The Potency was inconclusive: 11.2 µM [inhibitor, partial curve].

Question: For `FC(F)(F)c1ccc(CN2CCn3c(nnc3C3CCCNC3)C2)cc1` (configuration not stated), which Potency is on record?
Answer: Its Potency is inconclusive: 12.6 µM [inhibitor, partial curve].

Question: `Cc1cc(C)c(NC(=O)CN2c3ccccc3S(=O)(=O)c3ccccc32)c(C)c1` was tested. Which Potency did it give?
Answer: The Potency was inconclusive: 39.8 µM [inhibitor, single point].

Question: How did the Potency turn out when `COCc1nnc2n1CCC(NC(=O)COc1ccc(Cl)cc1)CC2` (configuration not stated) was run?
Answer: Its Potency is “inactive”.

Question: How did the Potency turn out when `CCN1CCC2(CCC1=O)CN(c1ncnc3c1CCC3)CCN2C` (configuration not stated) was run?
Answer: Its Potency is “inactive”.

Question: Which Potency does the source give for `COc1ccc(N2CC(C(=O)N3CCN(c4ncccn4)CC3)NC2=O)cc1` (configuration not stated) here?
Answer: Its Potency is inconclusive: 7.94 µM [inhibitor, partial curve].

Question: `Cc1ccc(CNC(=O)Nc2cn(CC(C)C)c(=O)c3ccccc23)cc1` was tested. Which Potency did it give?
Answer: The Potency was inconclusive: 15.8 µM [inhibitor, partial curve, poor fit].

Question: `Cn1ccc2c(C(=O)NCc3cccnc3)nc(-c3ccc(N4CCOCC4)cc3)cc21` was tested. Which Potency did it give?
Answer: Its Potency is inconclusive: 39.8 µM [inhibitor, partial curve, poor fit].

Question: `CN1CCN(C(C(=O)O)c2cn(CC(=O)O)c3cc(Br)ccc23)CC1` (configuration not stated) was tested. Which Potency did it give?
Answer: Its Potency is “inactive”.

Question: Which Potency does the source give for `O=C1CC(c2ccccc2)N(Cc2ccncc2)CCCN(C(=O)CCc2ccccc2)CCN1` (configuration not stated) here?
Answer: The Potency was “inactive”.

Question: With `COCCCNC(=O)CCc1ncc(-c2ccccc2F)o1` as the molecule, how does the Potency read?
Answer: Its Potency is “inactive”.

Question: `COc1cccc2c1OCC(CNC(=O)CCc1cn3ccccc3n1)C2` (configuration not stated) was tested. Which Potency did it give?
Answer: Its Potency is inconclusive: 31.6 µM [inhibitor, partial curve, poor fit].

Question: For `O=[N+]([O-])c1cc(-c2nc(-c3ccccc3)no2)ccc1NC1CCCC1`, which Potency is on record?
Answer: The Potency was inconclusive: 14.1 µM [inhibitor, partial curve, poor fit].

Question: For `CCOc1ccc(-c2cc(C(=O)NCCc3ccc(Cl)cc3)c3ccccc3n2)cc1`, which Potency is on record?
Answer: The Potency was inconclusive: 1.58 µM [inhibitor, full curve, poor fit].

Question: How did the Potency turn out when `COc1cc(-c2cc(OC)c3c(C)oc(C)c3c(=O)c2)ccc1OC(=O)c1ccccc1F` was run?
Answer: Its Potency is inconclusive: 17.8 µM [inhibitor, partial curve, poor fit].

Question: `O=C(Nc1ccccc1C(=O)OCC(=O)N1CCC(Cc2ccccc2)CC1)c1ccco1` was tested. Which Potency did it give?
Answer: Its Potency is “inactive”.

Question: How did the Potency turn out when `COc1ccc(C(=O)N[C@H]2CO[C@H]3[C@@H]2OC[C@H]3OCC(N)=O)cc1` was run?
Answer: The Potency was “inactive”.

Question: How did the Potency turn out when `COc1ccccc1C(=O)NC1=NC(c2ccc(Br)cc2)CC(=O)N1` (configuration not stated) was run?
Answer: Its Potency is inconclusive: 35.5 µM [inhibitor, single point].

Question: For `O=C(NCCN1CCc2ccccc2C1)c1cccc2c1CCN2C(=O)C1CC1`, which Potency is on record?
Answer: The Potency was inconclusive: 20 µM [inhibitor, partial curve, poor fit].

Question: For `COc1ccc(C2Nc3ccc(C)cc3[C@H]3OCCC[C@@H]23)cc1Br` (some centres not stated), which Potency is on record?
Answer: The Potency was “inactive”.

Question: How did the Potency turn out when `OCCCc1nc2n(n1)C(c1cccc(Cl)c1)C=C(c1ccccc1)N2` (configuration not stated) was run?
Answer: The Potency was inconclusive: 39.8 µM [inhibitor, single point].

Question: Which Potency does the source give for `COc1ccc(-c2cn3c(n2)sc2cc(C(=O)Nc4cc(OC)cc(OC)c4)ccc23)cc1` here?
Answer: Its Potency is inconclusive: 28.2 µM [inhibitor, partial curve, poor fit].
